Assay results as given in PubChem BioAssay AID1963576 (National Center for Advancing Translational Sciences (NCATS), 2024).
Out of some 46,000 compounds screened, about 60 (0.1%) were called active. Roughly 3% stayed inconclusive and do not appear here. Calls follow the shape of the dose curve; as a rule, active = well fitted inhibition curve with a large enough effect; inconclusive = small, poorly fitted or top-dose-only effect; inactive = no such curve, though single readings can be large or run the other way. The list shows a part of the results.

Test: Primary qHTS assay for Inhibitors of ovarian cancer metastasis using an organotypic tumor microenvironment (TME) model. Also: nearly all actives have a fitted effect of over 65% in size.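 As to activity change, negative = inhibition: plate controls were DMSO wells for no effect and tomatine positive control wells for full effect.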
Details: SKOV3ip1-GFP adhesion/invasion on 3D omental model, fluorescence; series mostly up to 45.8 µM; activity change, negative = inhibition: at the top concentration
Procedure, shortened: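 qHTS, 4-pt dose (0.36-46 umol/L); SKOV3ip1-GFP, 1,200 cells/well, no FBS; primary omental fibroblast/mesothelial co-culture 48 h pre-grown; 2 h RT + 16 h 37 C; PBS wash, 4% PFA; GFP count 488/509 nm.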

Compound	activity change, negative = inhibition	outcome
O=C(CSc1nc2ccccc2nc1Cc1ccccc1F)Nc1cccc(C(F)(F)F)c1	inactive: -4.59%	
COc1ccc(-c2onc(C)c2C)cc1S(=O)(=O)Nc1cc(Cl)ccc1C	inactive: -4.21%	
CCC(=O)Nc1ccc(CC)cc1-c1nc2ccccc2n(CC(=O)Nc2ccccc2C)c1=O		inactive
Cc1ccc(NC(=O)Cn2c(=O)oc3cc(S(=O)(=O)N4CCCCC4)ccc32)c(C)c1	inactive: -8.21%	
COc1ccc(-c2cc3nc(C)c(CCC(=O)N4CCN(c5ccccc5F)CC4)c(C)n3n2)c(OC)c1	inactive: 9.09%	
CCc1cccc(C)c1Nc1c(-c2cccs2)nc2nc(C)cc(C)n12	inactive: 17.4%	
COC(=O)c1ccccc1NC(=O)c1cc(CN2CCOCC2)on1	inactive: -11.1%	
CCOc1cc(C(=O)NCc2nc(-c3cccc(C)c3)no2)cc(OCC)c1OCC		inactive
CCOc1ccc(-c2cc(C(=O)NCCCOC)c3c(-c4ccc(CC)cc4)[nH]nc3n2)cc1		inactive
COc1cc2c(cc1OC)C(COc1ccc(F)cc1)N(C(=O)Cc1ccccc1)CC2 (configuration not stated)		inactive
Cc1cn2c(=O)cc(COC(=O)c3ccc(NC(=O)COc4ccc(C)c(C)c4)cc3)nc2s1	inactive: -4.41%	
COc1cc(C(=O)Nc2ccc(-c3nc4ccccc4o3)c(O)c2)cc(OC)c1OC	inactive: -6.58%	
CCc1ccccc1NC(=O)CSc1nnc(COc2ccccc2Cl)o1		inactive
CC(C)OCCCn1c(=O)c2ccccc2n2c(-c3cc(Cl)ccc3O)nnc12	inactive: -15.3%	
O=S(=O)(NCC(c1ccccc1)N1CCc2ccccc21)c1ccccc1 (configuration not stated)	inactive: -22%	
CCn1c(=N)c(C(=O)NCC2CCCO2)cc2c(=O)n3cc(C)ccc3nc21 (configuration not stated)		inactive
O=c1c2ccccc2n(Cc2c(F)cccc2Cl)c(=O)n1Cc1ccccc1	inactive: 5.58%	
COc1ccc(-c2nc3ccccc3s2)cc1NC(=O)c1cccc([N+](=O)[O-])c1C	inactive: 0.159%	
CC(NC(=O)CSc1nc(-c2cccc(Cl)c2)nc2cc(=O)[nH]n12)c1nc2ccccc2n1C (configuration not stated)	inactive: 4.23%	
Cc1ccc(Cn2c(CNC(=O)Cc3cccc([N+](=O)[O-])c3)nc3cccnc32)cc1		inactive
CCc1ccccc1NC(=O)CN1C(=O)c2cccnc2Sc2ccccc21	inactive: -19.6%	
CCn1c(=O)c2sccc2n2c(CCC(=O)Nc3ccc(OC)cc3OC)nnc12	inactive: 15.2%	
CCc1ccc(-c2cc(C)no2)cc1S(=O)(=O)Nc1cc(OC)c(OC)c(OC)c1	inactive: 1.46%	
Cc1ccc(S(=O)(=O)N2CCN(Cc3ccc4c(c3)OCO4)CC2)cc1	inactive: 0.173%	

Compound	activity change, negative = inhibition	outcome
Cc1ccc2c(c1)sc1nc(=O)n(-c3ccc(Cl)c(Cl)c3)c(=O)n12	inactive: 6.98%	
COc1ccc(C2=C(C)C(=NCc3ccc(OC(C)C)cc3)NS2(=O)=O)cc1	inactive: 1.95%	
COc1cc(C(=O)N2CCC(c3nc4ccccc4s3)CC2)cc(OC)c1OC		inactive
CCCCOc1ccc(CNC(=O)C2CCCN(c3nnc(-n4c(C)ccc4C)s3)C2)cc1 (configuration not stated)		inactive
CCCOc1ccc(NC(=O)CC2C(=O)N(c3ccc(F)cc3)C(=O)N2CC(C)C)cc1 (configuration not stated)	inactive: 0.649%	
CCn1c(=O)cc(OCC(=O)N2CCN(c3cccc(Cl)c3)CC2)c2ccccc21	inactive: -11.7%	
CNC(=O)c1cc(Oc2ccc(NC(=O)Nc3ccc(Cl)c(C(F)(F)F)c3)cc2)ccn1	inactive: 4.26%	
CCNc1ccc(-c2nc(-c3ccncc3)no2)cc1[N+](=O)[O-]		inactive
CC(=O)Nc1ccc(S(=O)(=O)Nc2cccc(-c3ccc(N4CCCCCC4)nn3)c2)cc1		inactive
COc1ccc(C(=O)NCCn2cc(SCC(=O)Nc3ccc(F)cc3)c3ccccc32)cc1		inactive
O=C(COc1ccccc1F)Nc1ccc2nc(SCC(=O)N3CCCC3)sc2c1	inactive: -9.89%	
Cc1nc(-c2ccc(S(=O)(=O)NCc3ccc(OC(C)C)cc3)cc2)co1		inactive
COc1cc(NC(=O)Cn2cnc3sc(C)c(S(=O)(=O)N4CCC(C)CC4)c3c2=O)cc(OC)c1OC	inactive: 1.46%	
Cc1ccc2c(=O)c(C(=O)c3ccccc3)cn(CC(=O)Nc3ccccc3C)c2n1	inactive: -7.01%	
CCn1cc(C(=O)NCCc2ccc(Cl)cc2)c(=O)c2cc(S(=O)(=O)N3CCCCCC3)ccc21	inactive: 6.19%	
Cc1nn(CCCC(=O)Nc2cccc(C(F)(F)F)c2)c(=O)c2nn(-c3ccccc3)c(C)c12	inactive: 3.31%	
CC(NC(=O)CN1C(=O)COc2ccc(Cl)cc21)c1ccccc1 (configuration not stated)	inactive: 3.76%	
COc1ccc(CCNC(=O)CCCn2c(=O)c3ccccc3n(CC(=O)Nc3ccc(C)cc3Cl)c2=O)cc1OC	inactive: 12.3%	
COc1ccc(Cl)cc1NC(=O)NCc1noc2ccccc12	inactive: 5.01%	
Cc1ccc2c(c1)N(C(=O)N1CCC(C(=O)NCc3cccs3)CC1)CC(C)O2 (configuration not stated)	inactive: 5.51%	
COc1ccc(CNC(=O)c2cc3c(=O)[nH]c4ccccc4c3n2C)c(OC)c1	inactive: 4.29%	
Cc1nn2c(=O)cc(COC(=O)C(c3ccccc3)c3ccccc3)nc2s1		inactive
Cc1ccc(-c2c(C(=O)N(C)Cc3ccccc3)oc(=O)c3ccccc23)cc1	inactive: -5.3%	
